Here are results for 29 compounds from PubChem BioAssay AID1240 (Sanford-Burnham Center for Chemical Genomics, 2008).

In all, about 50,000 compounds went through this assay and about 800 (1.6%) showed an effect of 50% or more. The list shows a part of the results.

This assay deals with Bcl-2-like protein 10 (Homo sapiens) (UniProt Q9HD36). As to the kind of experiment: TR3 peptide-Bcl-B binding displacers, biochemical primary FP assay, phenotype converters (AID 1240).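 Further: 0% = Bcl-B with tracer peptide and DMSO and 100% = tracer peptide lacking Bcl-B.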 Conditions: GST-Bcl-B / FITC-TR3 peptide fluorescence polarization; stronger effect = higher value; compound at 3.75 mg/L.
Chain of UniProt Q9HD36 (Q9HD36 whole entry, looked up): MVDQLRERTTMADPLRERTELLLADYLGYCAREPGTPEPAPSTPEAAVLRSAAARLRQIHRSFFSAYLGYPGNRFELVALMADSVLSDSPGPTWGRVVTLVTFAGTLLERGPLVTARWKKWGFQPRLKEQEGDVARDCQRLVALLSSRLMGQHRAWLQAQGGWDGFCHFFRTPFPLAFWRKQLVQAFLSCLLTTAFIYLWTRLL
`CCN(CC)c1ccc(C=Nc2ccc(C)c(F)c2)c(O)c1`: the displacement was 0.4%. Consider `COc1ccccc1/C=C1\SC(=S)N(c2cccc(C)c2)C1=O`, for which the displacement was found to be 1.5%. Regarding `O=C1C(=O)N(C2CCCCC2)C(=O)N1C1CCCCC1`, the displacement was determined as 16.9%.

For `O=C(COc1ccc2ccc(=O)oc2c1)OCc1ccccc1`, the displacement stood at 10.9%. For the compound `COc1ccc(NC(=O)c2ccc(CN3CCN(c4ccccc4)CC3)cc2)cc1`, the displacement was 0.9%. Under `COc1ccc(S(=O)(=O)N2CCN(S(=O)(=O)c3ccc(C)cc3)CC2)cc1` stands 13.8%; under `COc1ccc(C(=O)O/N=C2/CCCc3c2ccc(OC)c3C)cc1[N+](=O)[O-]`, -5.9%. Turning to `CC1(C)CC(=O)C2=C(C1)OC1=C(C(=O)CC(C)(C)C1)C2c1cn[nH]c1-c1ccccc1`, the displacement is -9.9%.

Consider `CC(=O)NN1C(=O)c2ccc(-c3ccc4c(c3)C(=O)N(NC(C)=O)C4=O)cc2C1=O`, for which the displacement is -12%.

`CCOC(=O)c1ccc(NC(=O)CCCCCN2C(=O)/C(=C/c3ccc(Cl)cc3)SC2=S)cc1`: the displacement is 2%. For `O=C1C(=O)N(Cc2cccnc2)C(c2ccc([N+](=O)[O-])cc2)/C1=C(\O)c1ccccc1` (centres undefined), the displacement was -5.6%. Turning to `Cc1ccc(C(=O)NCc2ccco2)cc1`, the displacement was found to be 8.5%. With `COc1ccc(N2C(=O)c3ccc4c5c(ccc(c35)C2=O)CC4)c(OC)c1`, the displacement was 12.5%.

Take `CCOC(=O)c1c(NC(=O)c2ccc(F)cc2)sc(C(=O)Nc2ccc3c(c2)OCO3)c1C`: the displacement was -11.9%.

As to `CCn1c(O)c(C=NCCc2ccc(O)c(O)c2)c2ccccc21`, the displacement stood at 12.4%. Under `COc1ccc(C(=O)OCCN2CCOCC2)cc1` stands -0.9%. As to `O=C(O)CCCCCN1C(=O)C(=O)/C(=C(/O)c2ccc(Cl)cc2)C1c1ccc(F)cc1` (centres undefined), the displacement was 3.4%. `CC(=O)Nc1ccc(N2C(=O)C3C4c5ccccc5C(c5ccccc54)C3C2=O)cc1` (centres undefined): the displacement came to 1.3%. Regarding `CCOc1cc(N)ccc1C1CCCCC1`, the displacement is -1.5%.

As to `O=c1[nH]nc(SCc2ccc([N+](=O)[O-])cc2)c(=O)[nH]1`, the displacement was -4%. On to `COc1ccc(NC(=O)COc2ccc(C(C)(C)c3ccccc3)cc2)c(OC)c1`, for which the displacement was 9.5%. In the case of `COc1ccc(/C=C2\SC(=O)N(Cc3ccccc3)C2=O)cc1`, the displacement was -13.1%. The same measure for `O=C1Nc2ccc(Br)cc2C1=Cc1nc2ccccc2c(=O)n1-c1ccc([N+](=O)[O-])cc1`: 3%. With `Cc1cc(OCC(=O)Nc2ccc(Nc3ccccc3)cc2)ccc1Br`, the displacement turned out to be 1.1%.

As for `Cc1c(Cl)cccc1NC(=O)c1ccc(Br)o1`, the displacement was -5.1%. As for `O=C(Nc1ccc(Cl)cn1)c1ccc(-c2cccc(Cl)c2)o1`, the displacement came to 9.1%. The same measure for `CCOc1cc(NC(=O)c2ccccc2)c(OCC)cc1NC(=O)CCC(=O)O`: -7.2%; for `O=C(CSCc1cccc(Br)c1)N1CCCCCC1`: 1%; for `O=C1CC(c2ccc(Cl)cc2)CC2=C1C(c1ccc(C(F)(F)F)cc1)Nc1ccccc1N2` (centres undefined): -0.4%.
